Measurements reported in paper PMC10726135.
This is one part of the list. At the low end of the ranking the order means little. The protein was read in a cell extract, so binding may be indirect.

Each sequence was assayed against T1, HNF4alpha8 (COS-7 nuclear extract) (UniProt P41235-5) (assay: protein-binding microarray). Conditions: COS-7 nuclear extract on double-stranded Agilent 4x180k PBM; binding buffer, salt, pH and temperature not given; high values mean tight binding; double strand, one strand shown; sequences stand for … in …GCCTAGGGAGATTAGAGTATCGGTCGA.
T1 sequence: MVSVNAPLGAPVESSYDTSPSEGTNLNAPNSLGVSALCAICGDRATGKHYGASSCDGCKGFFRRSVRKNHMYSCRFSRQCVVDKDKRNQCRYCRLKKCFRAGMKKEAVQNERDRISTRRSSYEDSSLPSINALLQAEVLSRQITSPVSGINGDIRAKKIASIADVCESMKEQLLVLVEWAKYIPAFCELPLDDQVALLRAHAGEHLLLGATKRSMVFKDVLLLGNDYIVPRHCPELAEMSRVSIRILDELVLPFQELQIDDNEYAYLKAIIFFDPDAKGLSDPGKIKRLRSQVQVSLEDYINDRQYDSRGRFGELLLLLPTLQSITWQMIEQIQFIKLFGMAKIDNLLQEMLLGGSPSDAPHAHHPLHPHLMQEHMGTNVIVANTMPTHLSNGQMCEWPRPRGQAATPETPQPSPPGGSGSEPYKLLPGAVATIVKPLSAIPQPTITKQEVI

Row | Sequence | binding signal (log2 normalized intensity)
1 | CTTTGCCCTTTGGGAAGGGGCAAAAGAGAG | 2.52
2 | TGAAAAGATAGCTTGAGGCCAGCTCATAGG | -1.18
3 | CACATTCGAAGTTTTGCTCCTTTGAGCACT | 1.18
4 | GGACAAAGTTCCCCGGGCAGCTGTGTTTGC | 0.702
5 | CTGAGAGACTTTATCCGTATAACAAGACAG | -1.2
6 | GAAAGAGGGTGAAAGTACAGTGATGTTTGT | 1.86
7 | CCTTTTTCTGTTCAATGGTGCTTTTGATAT | 2.23
8 | GTGCCATGCCAAAGAAGCAAAGGTTGGCTA | 0.147
9 | TCCCAAGTAGCTCATTTATTATTTGTCTGG | 1.54
10 | ACACACCGTTAGCCAATATTTGCAAGGCTG | -1.2
11 | GATCATAAATGCCTCCCCCTCTTTATCTCC | 3.63
12 | GACATAAATCACATTGTTAGCATAGCCTAT | -0.813
13 | GCTCAGTAAATTATCTTGATGGTTAAAGTC | 0.961
14 | GCCAATTAGAAGGCTCCCTGCTGCGGAGAG | -1.23
15 | CCTGAAATTGAGATGAGATGGTCAAAGGTT | 5.38
16 | GCAGCGGGCAGCCCGTGTGGGCGGGTGCAG | -1.31
17 | ACCATGAGAGGGTTAAAAACCAGAATGACA | -1.27
18 | GCAGATGAAGTCCAAAGGCCATCTGCTGGA | 3.73
19 | GTTATCAACCTTATCAGCAGGACACCAAAC | -1.21
20 | GGATTAAAGGATCAACTTTCAGAAGGGGAC | -1.26
21 | TGCTATTAAGCACTAGAAAGTCTTGAAGTC | -1.01
22 | AGATGAGCTCTGAACTAACAATTCTTTCTG | -1.36
23 | TGGTGAGCAGGTTAATTATAATCGCAGAAT | -1.09
24 | CACCCTCAAATCAGTGAAGGCCTCTGATGA | -0.925
25 | TGTTTGCATAAAGTTAAACTTTAAATTTGC | -0.158

Row | Sequence | binding signal (log2 normalized intensity)
26 | AAGTACACACTGTACCCGTCCACCTTTGGA | 3.27
27 | TCCCCAGATTCCAGGGGAGGGTAAGAGTCC | 2.84
28 | TTCTACTCTCCCCAGTTCAAAGGTTAAGAC | 6.04
29 | AAGGTTCCAGGGAACTGTCCACCAAGGAGG | -1.44
30 | CACTAAAGTTACAAGATCTTTGGACTATTG | 4.2
31 | GTGCTAGAGAAAGGACCAGTTGAGTGCAAA | -1.18
32 | CCGGCAGCAGCCTTGCCTTTGATGTGTCCA | 0.179
33 | GTTTACATTCCAGGGTGAAATTCAACAGAA | -1.27
34 | TGTACCTTTGACTATGGGCATGAAGTCAAA | 0.725
35 | CACCCCACCCCCTATCTTGTGTAATAACGA | 3.12
36 | TGCAGTACTATGCAATAACCAGGGAGTGGC | -1.35
37 | CTGCCAAAGGTAAAAAATGCAAGTTTATCG | 0.0715
38 | AAGCCTTTCTGAGGAGCTAACAGTAAAACT | -1.37
39 | GATGGGCAACTGTCCGAGTTGTCAAAAGGG | -1.3
40 | GTAAGCACAAAGTACAGCTTTTTGTTTGTG | 2.02
41 | TTGAAGCTCTGGTTCAAACAAGGCCAAAGT | 2.22
42 | AGTTACGTAATGTGTCCCCACATCTGTGAA | 2.08
43 | CTTCTCATCTTTATCATGTGGTATTAACAT | 2.08
44 | GGGACCTGAGAACATGTAATCATTTGGGAC | -0.395
45 | GCAAACTCTAGCTGTCCTCCTCTGAAGGAA | -1.35
46 | ACGTCATTTTGTCACCTACATGTGAGAGAG | 0.794
47 | CCAGCTAAAACTGCAGATTGACTCAGGCAT | -1.42
48 | GTTCACAATAAGAGGGTATACTATTTGCTA | -1.33
49 | CCTAAGCCCTGCTCAGGGAATGTGGGTCCA | 2.92
50 | AGCATGTTTGGTGACCCGTGACCCTCAGGA | 3.82

Row | Sequence | binding signal (log2 normalized intensity)
51 | CGCATGCATAACCAAACAGAGAGAAAGCAG | -1.19
52 | TACCTGTTTGCAAGCCCAAAGCCCCCAGAG | 3.36
53 | GGCCCAGAGCACAACCTTTGGCCGTGCATG | 3.61
54 | ATCCTCAGGGTTCATAGATGATAGTGATAA | 0.986
55 | GGCTTTTGCAGTCACTCTCTAGAATGAGCC | -1.22
56 | CAGGATTCTTGCTACAACTGGACTAGACAG | 0.371
57 | TGACCTGCAATGAAAGTCCACTTGTCTGGC | 2.29
58 | TTGCCCACCCCCCAAGTAGAGAGCAATTAT | 4
59 | TAGAAGAAAGCTTCATAGTGGTTTGACTTT | 1.67
60 | TACAAAACCCCTTATCAGGTAGAACATTGC | 0.929
61 | CTGGGAAGGCTCGTTCTCGCGAGAGTTCAG | 0.971
62 | TTAGAGGCTCAGGTAAAGGCATGCTTGGCA | -1.51
63 | AGTATTCATTCCCCTAGTATATTGGCTTGG | 1.9
64 | GAACCCAGACTGCATTTTCATCTTGCCTTT | 0.725
65 | TGTGCTATTTTTGGCTTGGTTCCACATCAG | 0.97
66 | GACCCAGGAGCCTTCCGGAGGCTCTGCTGA | -1.29
67 | GAAACTAAAGTCTGTTTGATTCCATGCTGA | 0.363
68 | ACATAACAGGTTTGTAACTTCTTGGCCTGC | -0.168
69 | GCTGCAGGCATGAGAGGTGCTGCATGGGCT | -1.27
70 | CCTCCCCTAGACTTACTATTATGCCTTGAC | 0.491
71 | TCCTTAGATAAAAAGCTTTTCTTCCCCCCT | 4.4
72 | GGAGGGAGGAGCACAGAAGGAGAGAGAGGG | -1.27
73 | ATTTGCGATAATAGAGATTGCTTAATGCAA | -0.917
74 | ACATTGCATTCCACCCTGGCAGAGGAAAAA | -1
75 | TCTTCAAGAGGCCCATCTCACACATAATGA | -1.13

Row | Sequence | binding signal (log2 normalized intensity)
76 | GCGGGCGGACTCCGAGCCATTTTGGAGCCG | -1.34
77 | TATAAAGGTCAACTGCCCTCTCAAATTACA | 2.25
78 | TTTGACAAAAAATGATGAATTTTCATCCCT | -1.33
79 | CCCCAACAAAGCTCTGCATCCTTCCCTAAG | -1.3
80 | GCAGACTCCCTAGAAGAGTGAACCTAGTGG | 0.866
81 | GTTTGATAGAGAAGTTTTGAAACCCTGTTC | -0.116
82 | GTGACTAAATGAGAAGAAATGATGGGTGCC | -1.35
83 | GAGTGATCCTGAAAACAAATAGAGCAGACT | -1.38
84 | ACTAGCCAAACAGGTTGGGGAGGTTTGGCT | -0.859
85 | CTTGTGATTACACTGGGCTCACCTGAATGA | -1.08
86 | GCCTGGGAAAATGTTGATTACGTGTTCCCA | 1.01
87 | ATCTTGCCTGTTGTATGGTTTTGTGCTAGA | 1.35
88 | AACACTTTCTAAGGACACAACAGAATGTGA | -0.0772
89 | TCTGCAAACACCCCTCCCCCACACAGACAA | 5.11
90 | GGAGTTTCAGAGGACTGCCCAGCTGCATCC | -1.2
91 | TGAACACTTCTTTGTTACTTACAGACTTTC | 0.669
92 | CAGTTTCTCTGTGAATCCACAGTAAAACAT | -1.22
93 | CCAGGCAGCACAATTTGTGTCTCTCACCTG | -1.33
94 | GAGGGCTGCTTATCTAGGATGAGAATCCAC | -1.18
95 | CAACCACACCAACATGGACTTTGTCACAAG | 6.62
96 | GAAAAAACCCATCCACCCATCCAAAGGTCA | 5.42
97 | GTGAGAAGGGGTAGTGATCCTGGTAGGGGG | -1.25
98 | CTGATCTTAAGTTGTACCTGACTAAAACCT | -0.461
99 | TGCAGCAGCATCCAGCCCCAGGCTGAGCGT | -1.42
100 | GATACAGCATGGCCCAGGGACTCAGGCACA | -1.3

Row | Sequence | binding signal (log2 normalized intensity)
101 | GGTAAAATAAGGCTGCGACCTGCTGGGCTG | -1.17
102 | TCCAGAAAGCAACAAAAACCAAATCACAAT | -1.36
103 | CTGGAGATAATAGTGGCTGAAAGTACTGGC | -1.29
104 | TGGGTATAGGCGCGCGTGTGTGTGTGTGTG | 2.66
105 | GGGCACTGCCCTTTGGAACCTGCCCTCTGT | 5.74
106 | ATGCCCGGCCGACGTGACCCGCCGCCCGAG | 2.02
107 | AGATGGTCAGTGAACTGTGGTTGACAGGCA | 1.01
108 | TACCCTACCTGTTTGCAAGCCCAAAGCCCC | 2.67
109 | GCATTCCAAGTGAGTAAGGAAAGCCACTTC | -1.26
110 | TCCAGAAATACTTGTTATATTGGATAGTGC | 1.38
111 | GCCTGCCCTTCGCTCCCCGACCTCCTGCTG | 2.62
112 | AAATTCCGGGGCTGGAATTTGAACCCAAGC | 6.43
113 | CATGCCAGGATGGGCTCCTGCCTTGGAGAA | -1.35
114 | TCAGCCTGCAAGTTAGGACAGCCCCAGGCC | -1.2
115 | CCTGGTAAGTTCCACTGCATCAGTGCTGAC | -1.4
116 | GTCAACTCCTCCAAGCCACCTTCCCGGCCT | -1.12
117 | GACTGCAAAATAGACAAACAGCAATAGCAA | -1.28
118 | GGAGTCCAGAGTTCAGGTAGAGGGATTCCC | 2.41
119 | GACGATGGTTTTCCAATCTGGTGAAAGATG | 0.739
120 | AGGGAGGTAGTCGCCCTCCGTCGTGGCCTG | -0.766
121 | GGCTTCCATTCTCAGGCAGATGGGCAGCAC | -1.38
122 | CTTTCCTGGTGCCTCCTTATCTCCCCAACT | 3.48
123 | AAGCCTTTGAACTGTGTTGCAAATTATTAC | 1.49
124 | CAGTCATGGAGGCATCATAAACTCCAACTC | -1.2
125 | GCCAATCTGCTTAAAGGCAAAGTCCAGAAC | 4.75

Row | Sequence | binding signal (log2 normalized intensity)
126 | TATGTTAATGGCAGAATCAAAGGTCAAAAT | 5.17
127 | AGTTGCTCAAACCAACATTATTAGCAGCAG | -1.39
128 | CTGGTGTAGTGGGGAGGGCATGGACTTTGG | 6.38
129 | TTGCTATGCAAACAGACTGGCGGCGTTTCG | -1.42
130 | GCGCAAACTATCTAAACAGACTAGTACAAC | -1.1
131 | GAGAGGACTACAGGCCCTGCATTTTTAGGC | -1.32
132 | GCCCTGAGCCAAGGGAGCACAACCCGGGCG | -1.3
133 | TTAAGATGATATAGCTGTTCATTAGACTCA | 1.37
134 | GCACCTTTTAAAATAGATAAGTCCCTAAGA | -1.29
135 | CAGGTCCAAGGTTCTCCAGGGACCCCCCGA | 3.91
136 | TTCCCTCGACTTCCTCTTCATATCAGTAAA | 0.77
137 | CTGAAAGCAAACAATGATGAAAGGAGCTTG | -1.07
138 | TCCCTCTGCTCCCCTGGCCTCACCCTTGTC | 2.7
139 | GCTTTCTTTCCTAATGGTACCATCTGCCAC | 0.799
140 | AGGCTGCCGTCCTCAGTGAATCACAGCAGC | -1.26
141 | CTTCAAGTCAGTCAAAATGAATAGTCCTTT | 0.855
142 | AGAGAAGATAATGGATTGGGGGCCATGTCT | -1.13
143 | CTGGCTAAACCAGCCTAACAGGATTTTTGC | -1.3
144 | AGTCTGGTGGCAAGTACCCTTTATCCCTCA | 1.51
145 | TCAGAGCAGGTGAACGACTTGACAAAGGTC | 4.1
